# Test results: the supplement of paper PMC8728848
# This is one part of the list.
# B1: XL-35 (Xenopus laevis) (protein)
# chain: MLVHILLLLVTGGLSQSCDPVVIVASKNMVKQLDCDKFRNCKEIKDSNEEAQDGIYTLTSPDGISYQTFCDMTTNGGGWTLVASVHENNMAGKCTIGDRWSSQQGNRADYPEGDGNWANYNTFGSAGGATSDDYKNPGYYDIEAYNLGVWHVPNKTPLSVWRNSSLQRYRTTDGILFKHGGNLFSLYRIYPVKYGIGSCSKDSGPTVPVVYDLGSANLTASFYSPGFRSQFTPGYIQFRPINTEKAALALCPGMKMESCNVEHVCIGGGGYFPEADPRQCGDFAAYDFNGYGTKKFNSAGIEITEAAVLLFYL
# Assays:
# Assay in all cases: glycan array binding signal (z-score within array); higher = stronger binding
# Details in all cases: glycan notation: IUPAC condensed, linker removed
# [1] = biological target: Neu5Ac(a2-3)Gal(b1-4)GlcNAc(b1-3)Gal(b1-4)GlcNAc
# Procedure, shortened: (§1)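 From the Consortium for Functional Glycomics database, 3228 arrays were curated, keeping only those whose protein sequence was available. Binding is given as a within-array Z-score averaged across arrays sharing a protein sequence and across linkers. Negative Z-scores can be read as non-binding.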
# [2] = biological target: Neu5Ac(a2-3)Gal(b1-4)GlcNAc(b1-3)Gal(b1-4)GlcNAc(b1-2)Man(a1-3)[Neu5Ac(a2-3)Gal(b1-4)GlcNAc(b1-3)Gal(b1-4)GlcNAc(b1-2)Man(a1-6)]Man(b1-4)GlcNAc(b1-4)GlcNAc
# Procedure, shortened: as §1
# [3] = biological target: Neu5Ac(a2-3)Gal(b1-4)GlcNAc(b1-3)Gal(b1-4)GlcNAc(b1-3)Gal(b1-4)GlcNAc
# Procedure, shortened: as §1
# [4] = biological target: Neu5Ac(a2-3)Gal(b1-4)GlcNAc(b1-3)Gal(b1-4)GlcNAc(b1-3)Gal(b1-4)GlcNAc(b1-2)Man(a1-3)[Neu5Ac(a2-3)Gal(b1-4)GlcNAc(b1-3)Gal(b1-4)GlcNAc(b1-3)Gal(b1-4)GlcNAc(b1-2)Man(a1-6)]GalNAc
# Procedure, shortened: as §1
# [5] = biological target: Neu5Ac(a2-3)Gal(b1-4)GlcNAc(b1-3)Gal(b1-4)GlcNAc(b1-3)GalNAc
# Procedure, shortened: as §1
# [6] = biological target: Neu5Ac(a2-3)Gal(b1-4)GlcNAc(b1-3)Gal(b1-4)GlcNAc(b1-3)[Neu5Ac(a2-3)Gal(b1-4)GlcNAc(b1-3)Gal(b1-4)GlcNAc(b1-6)]GalNAc
# Procedure, shortened: as §1
# [7] = biological target: Neu5Ac(a2-3)Gal(b1-4)GlcNAc(b1-3)Gal(b1-4)GlcNAc(b1-6)[Gal(b1-3)]GalNAc
# Procedure, shortened: as §1
# [8] = biological target: Neu5Ac(a2-3)Gal(b1-4)GlcNAc(b1-3)Gal(b1-4)[Fuc(a1-3)]GlcNAc
# Procedure, shortened: as §1
# [9] = biological target: Neu5Ac(a2-3)Gal(b1-4)GlcNAc(b1-3)GalNAc
# Procedure, shortened: as §1
# [10] = biological target: Neu5Ac(a2-3)Gal(b1-4)GlcNAc(b1-3)[Neu5Ac(a2-3)Gal(b1-4)GlcNAc(b1-6)]GalNAc
# Procedure, shortened: as §1
# [11] = biological target: Neu5Ac(a2-3)Gal(b1-4)GlcNAc(b1-6)GalNAc
# Procedure, shortened: as §1
# [12] = biological target: Neu5Ac(a2-3)Gal(b1-4)GlcNAc(b1-6)[Gal(b1-3)]GalNAc
# Procedure, shortened: as §1
# [13] = biological target: Neu5Ac(a2-3)Gal(b1-4)GlcNAc(b1-6)[Neu5Ac(a2-3)Gal(b1-3)]GalNAc
# Procedure, shortened: as §1
# [14] = biological target: Neu5Ac(a2-3)Gal(b1-4)GlcNAc6S
# Procedure, shortened: as §1
# [15] = biological target: Neu5Ac(a2-3)Gal(b1-4)[Fuc(a1-3)]GlcNAc
# Procedure, shortened: as §1
# [16] = biological target: Neu5Ac(a2-3)Gal(b1-4)[Fuc(a1-3)]GlcNAc(b1-2)Man
# Procedure, shortened: as §1
# [17] = biological target: Neu5Ac(a2-3)Gal(b1-4)[Fuc(a1-3)]GlcNAc(b1-3)Gal
# Procedure, shortened: as §1
# [18] = biological target: Neu5Ac(a2-3)Gal(b1-4)[Fuc(a1-3)]GlcNAc(b1-3)Gal(b1-4)GlcNAc
# Procedure, shortened: as §1
# [19] = biological target: Neu5Ac(a2-3)Gal(b1-4)[Fuc(a1-3)]GlcNAc(b1-3)Gal(b1-4)[Fuc(a1-3)]GlcNAc(b1-3)Gal(b1-4)[Fuc(a1-3)]GlcNAc
# Procedure, shortened: as §1
# [20] = biological target: Neu5Ac(a2-3)Gal(b1-4)[Fuc(a1-3)]GlcNAc(b1-3)GalNAc
# Procedure, shortened: as §1
# [21] = biological target: Neu5Ac(a2-3)Gal(b1-4)[Fuc(a1-3)]GlcNAc(b1-6)[Gal(b1-3)]GalNAc
# Procedure, shortened: as §1
# [22] = biological target: Neu5Ac(a2-3)Gal(b1-4)[Fuc(a1-3)]GlcNAc(b1-6)[Neu5Ac(a2-3)Gal(b1-3)]GalNAc
# Procedure, shortened: as §1
# [23] = biological target: Neu5Ac(a2-3)Gal(b1-4)[Fuc(a1-3)]GlcNAc6S
# Procedure, shortened: as §1
# [24] = biological target: Neu5Ac(a2-3)Gal6S(b1-4)GlcNAc
# Procedure, shortened: as §1
# [25] = biological target: Neu5Ac(a2-3)Gal6S(b1-4)[Fuc(a1-3)]GlcNAc
# Procedure, shortened: as §1
# [26] = biological target: Neu5Ac(a2-3)GalNAc
# Procedure, shortened: as §1
# [27] = biological target: Neu5Ac(a2-3)GalNAc(b1-4)GlcNAc
# Procedure, shortened: as §1
# [28] = biological target: Neu5Ac(a2-3)[GalNAc(b1-4)]Gal(b1-4)Glc
# Procedure, shortened: as §1
# [29] = biological target: Neu5Ac(a2-3)[GalNAc(b1-4)]Gal(b1-4)GlcNAc
# Procedure, shortened: as §1
# [30] = biological target: Neu5Ac(a2-3)[GalNAc(b1-4)]Gal(b1-4)GlcNAc(b1-3)GalNAc
# Procedure, shortened: as §1
# [31] = biological target: Neu5Ac(a2-3)[Neu5Ac(a2-6)]GalNAc
# Procedure, shortened: as §1
# [32] = biological target: Neu5Ac(a2-6)Gal
# Procedure, shortened: as §1
# [33] = biological target: Neu5Ac(a2-6)Gal(b1-3)GlcNAc(b1-3)[Gal(b1-4)GlcNAc(b1-6)]Gal(b1-4)Glc
# Procedure, shortened: as §1
# [34] = biological target: Neu5Ac(a2-6)Gal(b1-4)Glc
# Procedure, shortened: as §1
# [35] = biological target: Neu5Ac(a2-6)Gal(b1-4)GlcNAc
# Procedure, shortened: as §1
# [36] = biological target: Neu5Ac(a2-6)Gal(b1-4)GlcNAc(b1-2)Man
# Procedure, shortened: as §1
# [37] = biological target: Neu5Ac(a2-6)Gal(b1-4)GlcNAc(b1-2)Man(a1-3)Man(b1-4)GlcNAc(b1-4)GlcNAc
# Procedure, shortened: as §1
# [38] = biological target: Neu5Ac(a2-6)Gal(b1-4)GlcNAc(b1-2)Man(a1-3)[Gal(b1-4)GlcNAc(b1-2)Man(a1-6)]Man(b1-4)GlcNAc(b1-4)GlcNAc
# Procedure, shortened: as §1
binder,measurement,setting,value
B1,glycan array binding signal (z-score),[1],-0.116
same,glycan array binding signal (z-score),[2],0.064
same,glycan array binding signal (z-score),[3],-0.178
same,glycan array binding signal (z-score),[4],0.335
same,glycan array binding signal (z-score),[5],0.012
same,glycan array binding signal (z-score),[6],-0.256
same,glycan array binding signal (z-score),[7],-0.307
same,glycan array binding signal (z-score),[8],0.152
same,glycan array binding signal (z-score),[9],-0.1
same,glycan array binding signal (z-score),[10],-0.25
same,glycan array binding signal (z-score),[11],-0.331
same,glycan array binding signal (z-score),[12],-0.287
same,glycan array binding signal (z-score),[13],-0.518
same,glycan array binding signal (z-score),[14],0.039
same,glycan array binding signal (z-score),[15],-0.21
same,glycan array binding signal (z-score),[16],0.447
same,glycan array binding signal (z-score),[17],-0.202
same,glycan array binding signal (z-score),[18],0.191
same,glycan array binding signal (z-score),[19],-0.116
same,glycan array binding signal (z-score),[20],0.775
same,glycan array binding signal (z-score),[21],-0.043
same,glycan array binding signal (z-score),[22],-0.067
same,glycan array binding signal (z-score),[23],-0.136
same,glycan array binding signal (z-score),[24],0.029
same,glycan array binding signal (z-score),[25],-0.241
same,glycan array binding signal (z-score),[26],-0.256
same,glycan array binding signal (z-score),[27],-0.304
same,glycan array binding signal (z-score),[28],-0.177
same,glycan array binding signal (z-score),[29],-0.116
same,glycan array binding signal (z-score),[30],-0.374
same,glycan array binding signal (z-score),[31],0.04
same,glycan array binding signal (z-score),[32],-0.04
same,glycan array binding signal (z-score),[33],0.161
same,glycan array binding signal (z-score),[34],-0.058
same,glycan array binding signal (z-score),[35],-0.102
same,glycan array binding signal (z-score),[36],-0.003
same,glycan array binding signal (z-score),[37],-0.107
same,glycan array binding signal (z-score),[38],-0.249
